The source of these data is PubChem BioAssay AID1346428 (National Center for Advancing Translational Sciences (NCATS), 2018).

About 1,200 (2.5%) of roughly 48,000 compounds were called active. About 2% were inconclusive and are not listed.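 How the source made its calls: active means activation of at least 60% and not above a set upper limit (about 1 call in 100 departs from these limits); inconclusive means activation of 40% to 60%, or above that upper limit; inactive means activation under 40%.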 The list shows a part of the results.

The target in the test is Probable G-protein coupled receptor 32 (Homo sapiens) (UniProt O75388). Description: qHTS for Agonists of Human Resolvin D1 Receptor DRV1. Further: 0% is about no effect. To be noted: CHO-K1 GPR32 beta-arrestin PathHunter luminescence, 90 min; at 76.9 µM; hits give high values; zero percent set by DMSO-only wells. Put shortly: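 Cells are plated overnight, treated with compounds in DMSO for 90 minutes at 37 °C, and developed with PathHunter detection reagent for 1 hour before luminescence is read; signal reflects beta-arrestin binding to GPR32 in engineered CHO-K1 cells.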
UniProt O75388, sequence (O75388 whole entry, looked up): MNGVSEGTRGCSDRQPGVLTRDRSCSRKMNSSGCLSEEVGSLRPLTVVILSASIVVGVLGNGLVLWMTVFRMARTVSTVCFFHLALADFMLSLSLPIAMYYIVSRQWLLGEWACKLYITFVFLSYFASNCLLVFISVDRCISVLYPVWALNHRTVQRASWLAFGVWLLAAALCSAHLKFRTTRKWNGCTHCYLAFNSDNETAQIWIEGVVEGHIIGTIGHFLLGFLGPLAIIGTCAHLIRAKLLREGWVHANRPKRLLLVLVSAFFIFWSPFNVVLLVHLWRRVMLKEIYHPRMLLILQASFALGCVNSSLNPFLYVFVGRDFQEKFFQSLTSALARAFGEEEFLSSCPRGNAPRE
As for `COc1ccc(NC(=O)c2c(NCc3cccc(F)c3)sc3c2CCC3)c(OC)c1`, the activation is inactive: -3.12%.
With `CSCCC(NS(=O)(=O)c1ccc2c(c1)oc(=O)n2C)C(=O)Nc1ccc(F)c(Cl)c1` (stereo not given) the figure was inactive: -16.5%; with `Cc1cccc(NC(=O)c2cnc3sc(N4CCCC4)nn3c2=O)c1C`, inactive: -9.15%; with `O=C(NCC(c1cccnc1)N1CCN(c2ccccc2F)CC1)c1ccc(F)cc1` (stereo not given), inactive: 10.9%.
Then `Cc1cc(C)cc(NC(=O)Cc2csc(COc3cccc(C)c3)n2)c1`, with inactive: -20.8%; and `COc1ccc(C)cc1NC(=O)C(=O)NCCc1sc(-c2cccc(C)c2)nc1C`, with inactive: 9.52%.
With `COc1cc2c(cc1OC)C(=O)CC2` the figure was inactive: 3.73%; with `Cc1ccccc1C(=O)Nc1ccc(S(=O)(=O)N2CCC(c3nc4ccccc4s3)CC2)cc1`, inactive: -16.6%.
As for `CC(C)Cc1cc(C(=O)NCc2ccc(Cl)cc2)no1`, the activation is inactive: 16.5%.
With `CCCCc1ccc(-n2nc3ccc(NC(=O)c4cc5ccccc5o4)cc3n2)cc1` the figure was inactive: 28.1%; with `CCc1ccc2oc(-c3ccc(C)c(NC(=O)c4cc([N+](=O)[O-])ccc4N4CCOCC4)c3)nc2c1`, inactive: 22.3%.
Take `COc1ccc(-n2c(=O)c3c4c(sc3n(Cc3ccc(F)cc3)c2=O)CN(C(C)=O)CC4)c(OC)c1`: the activation is inactive: 0.446%.
Then `CCC(CC)C(=O)N1c2ccccc2C(C)(c2ccccc2)CC1(C)C` (stereo not given), with inactive: 24.5%.
Consider `COC(=O)CN1C(=O)CSc2ccc(S(=O)(=O)Nc3ccc(F)c(Cl)c3)cc21`, for which the activation is inactive: 1.34%.
Turning to `CSc1ncc(C(=O)Nc2cc(C)cc(C)c2)c(-c2ccccc2)n1`, the activation was inactive: 15.4%.
With `COc1ccc(C(=O)NCCSc2c[nH]c3ccccc23)cc1OC` the figure was inactive: -17.1%; with `Clc1ccc(CSc2ccc(-c3cccs3)nn2)cc1`, inactive: -15%.
Take `CN1CCN(C(CNC(=O)c2ccc(F)cc2)c2ccc3c(c2)OCO3)CC1` (stereo not given): the activation was inactive: 10.3%.
Then `COc1ccc(OC)c(CCNC(=O)c2c(C)oc3ncn(CC(C)C)c(=O)c23)c1`, with inactive: 10.3%; and `Cc1cc(C)c(Cn2c(=O)n(CCC(=O)NCCc3ccccc3)c(=O)c3ccccc32)c(C)c1`, with inactive: -2.19%; and `CC(=O)N1CCc2c(sc3c2c(=O)n(Cc2ccccc2)c(=O)n3Cc2ccc(Cl)cc2)C1`, with inactive: -4.4%.
With `Nc1ccc(C(=O)N2CC3CC(CN(Cc4ccccc4)C3)C2)cc1` the figure was inactive: -15.1%.
For the compound `O=C(O)c1sc(Nc2ccccc2)nc1-c1ccccc1`, the activation was inactive: -4.05%.
With `CCOC(=O)Cn1c(=O)oc2cc(S(=O)(=O)N3CCN(c4cccc(Cl)c4)CC3)ccc21` the figure was inactive: -0.781%.
With `CCOCCCn1c(SCC(=O)Nc2ccccc2CC)nc2ccccc2c1=O` the figure was inactive: -16.5%; with `Cc1ccc(NC(=O)c2cccc3c(=O)c4c([nH]c23)CCCC4)c(C)c1`, inactive: 4.24%; with `Cc1ccc(NC(=O)Nc2nnc(SCC(=O)N(C(C)C)C(C)C)s2)cc1`, inactive: 40.5%.
Then `COc1cccc(CNC(=O)c2c(C)nn(-c3ccc(F)cc3)c2-n2cccc2)c1`, with inactive: 23.1%.
`CCOC(=O)c1sc2ccccc2c1S(=O)(=O)Nc1ccc(OC)c(Cl)c1`: the activation was inactive: -40.5%.
As for `CCOc1ccc(NC(=O)Nc2nnc(N3CCCCC3C)s2)cc1` (stereo not given), the activation was inactive: 8.97%.
In the case of `COc1ccc(N2CCN(C(=O)c3cc4c(=O)oc5ccc(C)cc5c4s3)CC2)cc1`, the activation is inactive: -3.78%.
In the case of `Cc1ccc(N2CCN(S(=O)(=O)c3nnc(NC(=O)c4ccccc4)s3)CC2)cc1`, the activation is inactive: 35.2%.
With `Cc1c(C)n(Cc2ccccc2)c2ccc(C(=O)NCC(C)c3ccccc3)cc12` (stereo not given) the figure was inactive: -17.3%; with `N[C@H](C(=O)O)[C@H]1C[C@@H]1C(=O)O`, inactive: 0.873%; with `CCOC(=O)CNC(=O)c1cc2c(=O)oc3ccccc3c2s1`, inactive: -4.13%.
As for `CCOc1ccc(CCNC(=O)c2ccc(-n3c(C)cc4c3CCCC4)cc2)cc1OCC`, the activation was inactive: -11.9%.
For `Cc1cc(C)n(CCC(=O)Nc2ccc(Cl)cc2)n1`, the activation is inactive: 0.555%.
`Cc1ccc(C)c(N2CCN(c3nc4ccc(C)cc4nc3-n3nc(C)cc3C)CC2)c1`: the activation was inactive: 1.32%.
For the compound `O=C(Nc1ccccc1C(=O)OCc1cc(=O)n2nc(C3CC3)sc2n1)c1ccc(Cl)cc1`, the activation was inactive: -8.74%.
As for `O=C(Cn1cnc2nc3c(cc2c1=O)CCCC3)Nc1ccc(F)cc1Cl`, the activation was inactive: -12.4%.
With `CCOCCc1nnc(NC(=O)C(=O)c2cc(C)n(-c3ccc(C)c(C)c3)c2C)s1` the figure was inactive: 27.7%.
Turning to `CCCCNc1nc2c(S(=O)(=O)c3ccc(C)cc3)nnn2c2ccsc12`, the activation was inactive: -9.51%.
Consider `CCOc1ccc(N2CC(NC(=O)c3ccc4c(c3)OCO4)CC2=O)cc1` (stereo not given), for which the activation is inactive: 5.17%.
Consider `CCOc1ccc(CCNC(=O)c2ccc3c(c2)N(Cc2ccc(F)cc2)CCS3)cc1`, for which the activation is inactive: -7.15%.
With `COc1ccccc1CNC(=O)CSc1nc(-c2ccc(OC)c(OC)c2)cc(C(F)(F)F)n1` the figure was inactive: -21%; with `Cc1ccc(N2CC(NC(=O)c3ccc(S(=O)(=O)N(C)C)cc3)CC2=O)cc1C` (stereo not given), inactive: 4.89%; with `CCC(C)NC(=O)c1ccc2c(c1)sc1nc(-c3ccc(OC)cc3)cn12` (stereo not given), active: 80.5%.
With `COC(=O)c1sccc1S(=O)(=O)N(CC(=O)Nc1cc(C)ccc1C)c1ccc(C)c(C)c1` the figure was inactive: -13.7%; with `O=C(CSc1nc2c([nH]c3ccccc32)c(=O)n1-c1cccc(Cl)c1)N1CCCC1`, inactive: 3.46%.
With `O=C(Cn1cc(S(=O)(=O)Cc2cccc(Cl)c2)c2ccccc21)Nc1ccccc1C(F)(F)F` the figure was inactive: -8.08%; with `COc1ccc(N2CCN(C(=O)Nc3cn(CC(C)C)c(=O)c4ccccc34)CC2)cc1`, inactive: -4.93%; with `O=C(Nc1cc(Cl)ccc1Cl)c1ccc2c(c1)N(Cc1cccc(Cl)c1)C(=O)c1ccccc1S2=O` (stereo not given), inactive: -10.9%.
As to `O=C(NCc1cccs1)c1ccc2c(c1)sc1nc(-c3ccc(F)cc3)cn12`, the activation was inactive: -5.75%.
With `Cc1c(Cl)cccc1NC(=O)c1cc(-c2ccc3c(c2)OCO3)on1` the figure was inactive: 9.07%; with `COc1c(Cl)cc(C(=O)Nc2cc(-c3nc4ccccc4[nH]3)ccc2C)cc1Cl`, inactive: 5.4%.
Turning to `Cc1nn(-c2ccccc2)c(OC(=O)c2ccccc2)c1S(=O)(=O)c1ccccc1`, the activation was inactive: -14.1%.
Then `Cc1ccc2oc(C(=O)Nc3c(C(=O)Nc4cccc(Cl)c4)oc4ccccc34)cc(=O)c2c1`, with inactive: 4.75%; and `Cc1ccccc1Cn1ccn(-c2ccc(F)c(F)c2)c(=O)c1=O`, with inactive: -5.01%.
As to `O=C(Nc1ccccc1C(F)(F)F)N1CCOc2ccc(Cl)cc21`, the activation is inactive: 31.5%.
Then `Cc1ccc(N2C(=O)CS(=O)(=O)C23C(=O)Nc2ccccc23)cc1C` (stereo not given), with inactive: 16.6%; and `CCOC(=O)CSc1nc2ccccc2c(=O)n1-c1ccc(C(=O)NCCOC)cc1`, with inactive: -12.8%; and `CCOC(=O)N1CCC(NC(=O)c2ccc3c(c2)N(Cc2ccccc2C)C(=O)c2ccccc2S3=O)CC1` (stereo not given), with inactive: -8.54%.
Then `CCOc1ccccc1-c1noc(CSc2nnc(-c3ccccc3)n2-c2ccc(OC)cc2)n1`, with inactive: 8.87%.
With `CC(C)c1ccc(C2CC(=O)Nc3cc4c(cc32)OCCO4)cc1` (stereo not given) the figure was inactive: 29.3%; with `CN(Cc1nc(-c2ccc(Cl)cc2)no1)S(=O)(=O)c1ccccc1`, inactive: 19.4%.
In the case of `CCCn1c(=N)c(C(=O)NCC2CCCO2)cc2c(=O)n3cc(C)ccc3nc21` (stereo not given), the activation is inactive: -7.54%.
With `Cc1cccc(-c2nc(SCc3cc(=O)c4c(C)cc(C)cc4[nH]3)n[nH]2)c1`, the activation is active: 116%.
Then `COCCN(CCOC)S(=O)(=O)c1ccc(C(=O)Nc2sc3c(c2C(N)=O)CCCC3)cc1`, with inactive: 1.04%.
As for `COc1ccc(S(=O)(=O)N2CCC(c3nc4ccccc4s3)CC2)cc1OC`, the activation is inactive: 4.63%.
With `O=C(Cn1ncc2c3ccccc3n(Cc3ccccc3)c2c1=O)NCCc1ccc(Cl)cc1` the figure was inactive: -5.26%; with `Cc1cccc(CSc2cn(CC(=O)N3CCOCC3)c3ccccc23)c1`, inactive: -31.9%.
As for `O=C(Cn1nc2c(cc1=O)CCCC2)NCc1ccc(Cl)cc1`, the activation is inactive: -5.77%.
Then `COc1cccc(NC(=O)Cn2nc(N3CCN(c4ccccc4)CC3)ccc2=O)c1`, with inactive: -15.6%.
Take `Cc1ccc(Cl)cc1-n1ncc2c(NCCc3ccccc3)ncnc21`: the activation is active: 101%.
Then `CCCNC(=O)c1ccc2c(c1)N=C(CCC)c1ccccc1S2`, with inactive: -18.1%; and `CCN(C(=O)CN1C(=O)c2ccccc2Sc2ccc(C(=O)OC)cc21)c1cccc(C)c1`, with inactive: -26.8%; and `Cc1ccc(OCC(=O)Nc2ccc(OCc3cc(=O)n4ccsc4n3)cc2)cc1C`, with inactive: 8.27%.
Regarding `CCC(=O)N1CCc2cc(S(=O)(=O)NC(Cc3ccccc3)C(=O)NCc3ccccc3)ccc21` (stereo not given), the activation is inactive: -5.65%.
As for `COc1ccc(C(=O)c2ccccc2O)c(O)c1`, the activation was inactive: -27.3%.
Then `Cc1ccc(NC(=O)Cn2c(=O)n(Cc3nc(-c4ccccc4)no3)c(=O)c3ccccc32)c(C)c1`, with inactive: -0.825%; and `CCCCNc1nc2c(S(=O)(=O)c3ccc(Br)cc3)nnn2c2ccsc12`, with inactive: -14.3%; and `CCC(=O)N1CCc2cc(Br)cc(S(=O)(=O)N3CCCC(C(=O)Nc4ccc(C)c(F)c4)C3)c21` (stereo not given), with inactive: 10%.
Consider `Cc1ccc(Nc2c(-c3ccccn3)nc3ccc(Br)cn23)cc1`, for which the activation is inactive: -24.2%.
With `COc1ccccc1NC(=O)c1c(-c2ccc(C)cc2)nnc2ccccc12` the figure was inactive: -25.2%; with `Cc1ccc2ccc3cc(C(=O)N4CCN(c5ccccc5F)CC4)nc3c2[nH]1`, inactive: -1.02%.
